# According to paper PMC4336329 (PLoS ONE, 2015):
# Hit rate of the full screen: of about 310,000 compounds, about 14,000 (4.5%) showed an effect of 50% or more. Effects have a minus sign here. The list shows a part of the results.
# Target: human ether-à-go-go-related gene (hERG) potassium channel (human, UniProt Q12809)
# Test: primary screen, population patch clamp on CHO cells stably expressing hERG
# 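Note: peak tail current of the secondary pulse compared with the same well before compound.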
# human ether-à-go-go-related gene (hERG) potassium channel, sequence (Q12809 whole entry, looked up): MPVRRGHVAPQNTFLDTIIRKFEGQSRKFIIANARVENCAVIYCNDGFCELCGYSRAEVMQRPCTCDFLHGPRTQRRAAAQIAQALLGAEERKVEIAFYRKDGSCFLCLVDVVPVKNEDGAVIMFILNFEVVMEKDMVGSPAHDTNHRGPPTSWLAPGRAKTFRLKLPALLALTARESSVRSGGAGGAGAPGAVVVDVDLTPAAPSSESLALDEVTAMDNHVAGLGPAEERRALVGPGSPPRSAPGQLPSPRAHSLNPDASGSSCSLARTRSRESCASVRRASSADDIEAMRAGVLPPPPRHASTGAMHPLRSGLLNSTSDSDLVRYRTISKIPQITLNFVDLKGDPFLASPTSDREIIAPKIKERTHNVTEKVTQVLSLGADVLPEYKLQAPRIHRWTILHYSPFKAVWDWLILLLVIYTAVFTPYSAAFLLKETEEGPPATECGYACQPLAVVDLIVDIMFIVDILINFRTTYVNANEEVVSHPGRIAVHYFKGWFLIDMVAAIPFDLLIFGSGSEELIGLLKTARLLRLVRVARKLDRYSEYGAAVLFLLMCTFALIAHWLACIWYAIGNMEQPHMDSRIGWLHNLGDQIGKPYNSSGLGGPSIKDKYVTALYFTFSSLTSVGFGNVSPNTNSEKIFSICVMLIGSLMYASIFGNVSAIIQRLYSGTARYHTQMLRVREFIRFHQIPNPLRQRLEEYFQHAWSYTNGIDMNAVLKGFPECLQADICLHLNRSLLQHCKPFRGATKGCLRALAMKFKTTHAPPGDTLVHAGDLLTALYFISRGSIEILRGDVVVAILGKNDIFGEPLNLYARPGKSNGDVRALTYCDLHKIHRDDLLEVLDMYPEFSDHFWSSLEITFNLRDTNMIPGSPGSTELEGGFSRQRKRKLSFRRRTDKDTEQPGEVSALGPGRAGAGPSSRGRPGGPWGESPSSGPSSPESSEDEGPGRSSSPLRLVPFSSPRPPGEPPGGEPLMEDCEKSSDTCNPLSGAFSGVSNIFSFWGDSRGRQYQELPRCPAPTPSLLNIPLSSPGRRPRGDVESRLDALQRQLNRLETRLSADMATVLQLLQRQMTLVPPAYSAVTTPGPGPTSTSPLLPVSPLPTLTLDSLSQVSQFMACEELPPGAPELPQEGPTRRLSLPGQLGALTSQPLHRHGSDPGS
row,SMILES,"hERG current change (%, negative = inhibition) at 10uM [%]"
1,COc1ccc(/C=N/N=C2/NC(=O)C(CC(=O)O)S2)cc1OCc1ccc(Cl)cc1 (stereo not drawn),-1.97
2,CS(=O)(=O)N(CC(=O)N1CCN(Cc2ccccc2)CC1)c1cccc(F)c1,-36.3
3,Cc1cc(C)nc(Nc2ccc(Cl)cc2C)n1.Cl,19.6
4,O=C(COC(=O)CCS(=O)(=O)c1ccccc1)Nc1ccc(N2CCCCC2)cc1,0.846
5,CCS(=O)(=O)c1ccc(O)c(NC(=O)Nc2ccccc2)c1,4.83
6,CC1CCCC(C(=O)O)N1C(=O)CCSSCCC(=O)N1C(C)CCCC1C(=O)O (stereo not drawn),21.7
7,O=C(N/N=C/c1c[nH]c2ccccc12)c1cccc([N+](=O)[O-])c1,3.45
8,Cl.O=S(=O)(NC1CCN(Cc2ccccc2)CC1)c1ccc2ccccc2c1,8.29
9,COc1ccccc1N1C(N)=NC(N)=NC1(C)C.Cl,11.8
10,Cc1cc(C)c2sc(N(CCCN(C)C)C(=O)COc3ccc(Cl)cc3)nc2c1.Cl,-1.13
11,O=C(Nc1n[nH]c(=S)s1)c1ccco1,12.9
12,CSc1nc(N2CCCC2)c2c(c1C#N)CC(C)(C)OC2,6.19
13,CC(CCc1ccccc1)NS(=O)(=O)c1ccccc1F (stereo not drawn),6.37
14,COc1ccc(NC(=O)CN(C)C(=O)c2ccc(NS(=O)(=O)c3cccc([N+](=O)[O-])c3)cc2)cc1,-0.212
15,Cn1cccc1CC(=O)N/N=C/c1cc([N+](=O)[O-])ccc1Cl,12.1
16,CCc1nc2sc(C(C)=O)c(N)c2c2c1CCCC2,22
17,Cn1c(SCC(=O)N2CCc3ccccc32)nnc1-c1ccc(S(=O)(=O)N2CCCC2)cc1,10.1
18,Cc1nn(C)c(C)c1S(=O)(=O)N(CC(=O)Nc1ccc2c(c1)OCO2)c1ccc(C(C)C)cc1,7.38
19,O=C(Cc1ccc(Br)cc1)Nc1ccccc1Cl,19.5
20,C=CCn1c(C)nc2c(cnn2-c2ccccc2)c1=O,-1.9
21,COCC(=O)Nc1nc(-c2ccc([N+](=O)[O-])cc2)cs1,42.9
22,COc1ccc2oc(C(=O)Nc3ccc(S(=O)(=O)N(C)C4CCN(C)CC4)cc3)c(C)c2c1,7.08
23,CC1(C)Cc2c(sc3[nH]c(=S)n(Cc4ccco4)c(=O)c23)CO1,5.58

row,SMILES,"hERG current change (%, negative = inhibition) at 10uM [%]"
1,COc1ccc(-c2noc(CN(C)C(=O)c3ccoc3C)n2)cc1,14.4
2,O=[N+]([O-])/C=C1\NCCN1Cc1ccc(Cl)nc1 [22413311],5.78
3,Cc1cc(C)cc(N(CC(=O)NC2CC3CCC2C3)S(C)(=O)=O)c1 (stereo not drawn),-17.9
4,OCCSc1nc(-c2ccccc2)nc2c1CCC2,-12
5,Cc1cc(C)n(C(=O)C(C(=O)c2ccccc2)C(C)C)n1 (stereo not drawn),-9.85
6,COc1ccc2nc(N3C(=O)CC(Cc4ccc(C)cc4)C3=O)sc2c1 (stereo not drawn),-3.78
7,CC1CCCN(C(=O)CCCNC(=O)c2ccc(Cl)cc2)C1 (stereo not drawn),4.52
8,CCC(C(=O)OCC(=O)Nc1ccc2[nH]c(=O)[nH]c2c1)c1ccccc1 (stereo not drawn),-2.69
9,CN(Cc1ccccc1)c1nc2nonc2nc1N1CCCC(CN2CCCC2=O)C1 (stereo not drawn),-27.9
10,CCCCN1C2CCCC1CC(NC(=O)c1ccccc1Cl)C2 (stereo not drawn),-16.5
11,O=C(COc1ccccc1C(=O)O)Nc1nc2ccc([N+](=O)[O-])cc2s1,0.774
12,COc1ccc(OC)c(C(=O)/C=C/c2cccnc2)c1,17.2
13,CC1CCCN(C(=O)c2cccc(S(=O)(=O)N3CCCc4ccccc43)c2)C1 (stereo not drawn),-23.7
14,Cc1ccsc1C(=O)OCC(=O)NC1CCCCC1C (stereo not drawn),12.6
15,Cc1ccc(-c2nnc(N3CCN(C(=O)CN4C(=O)c5ccccc5C4=O)CC3)c3ccccc23)cc1,6.37
16,COc1ccc2[nH]cc(CCN3C(=O)CCC3=O)c2c1,10.7
17,CCOc1cc(C(=O)NC)cc(OCC)c1OCC,12.7
18,Cc1ccc(C)c(N(CC(=O)NC2CCCC2)S(=O)(=O)c2ccccc2)c1,19.9
19,COc1cc2c(cc1C=O)OC(C)C2 (stereo not drawn),43.1
20,CC(OC(=O)Cc1n[nH]c(=O)c2ccccc12)C(=O)Nc1ccccc1[N+](=O)[O-] (stereo not drawn),-5.73
21,C1CCC(n2nnnc2CN2CCN(C3CCCC3)CC2)CC1,-10.1
22,COC(=O)/C(=C/c1ccco1)NC(=O)c1ccc(Br)o1,9.82
